One experiment concerns HSkMC. Kind of experiment: cytotoxicity call (relative viability < 0.9). The note with it: 10 µM.
In the next experiment the test system is HepG2. Kind of experiment: cytotoxicity call (relative viability < 0.9). The note with it: 10 µM.
The test system of the next experiment is S. aureus RN4220. In words: growth inhibition call (relative growth <= 0.2). The note with it: 50 µM.

Some of the results follow.

With `C[C@H](NC(=O)C[C@@H]1C=C[C@@H](NC(=O)CN2CCOCC2)[C@@H](CO)O1)c1ccccc1`, the cytotoxicity call in the experiment on HSkMC and in the experiment with HepG2 was “inactive” in each case. Also, the growth inhibition call in the experiment with S. aureus RN4220 is “inactive”.

For the molecule `C[C@@H]1CN([C@H](C)CO)C(=O)CCCn2cc(nn2)CO[C@H]1CN(C)C(=O)Nc1ccc2c(c1)OCO2`, the cytotoxicity call in the experiment on HSkMC and in the experiment on HepG2 was “inactive” in each case. Moreover, the growth inhibition call with S. aureus RN4220 was “inactive”.

As to `CO[C@H]1CN(C)C(=O)c2ccc(NC(=O)c3ccc(F)cc3)cc2OC[C@H](C)N(C(=O)CN(C)C)C[C@@H]1C`, the cytotoxicity call with HSkMC and in the experiment with HepG2 was “inactive” each time. In addition, in the experiment with S. aureus RN4220, the growth inhibition call was “inactive”.

As to `C[C@H]1CN([C@@H](C)CO)C(=O)Cc2cc(NC(=O)CCN3CCOCC3)ccc2O[C@H]1CN(C)C(=O)Nc1ccc(F)cc1`, the cytotoxicity call in the experiment on HSkMC and in the experiment with HepG2 was “inactive” each time. For the same molecule, the growth inhibition call with S. aureus RN4220 is “inactive”.

Regarding `C[C@H](CO)N1C[C@H](C)[C@@H](CN(C)S(=O)(=O)c2ccccc2)Oc2ccc(NS(=O)(=O)c3cccs3)cc2C1=O`, the cytotoxicity call in the experiment with HSkMC and in the experiment on HepG2 was “inactive” each time. The growth inhibition call in the experiment on S. aureus RN4220 is “inactive”.

Regarding `C[C@H](CO)N1C[C@H](C)[C@@H](CN(C)C(=O)CN(C)C)Oc2ncc(-c3ccc(C(=O)N(C)C)cc3)cc2C1=O`, the cytotoxicity call with HSkMC and in the experiment on HepG2 was “inactive” in each case. In addition, the growth inhibition call with S. aureus RN4220 was “inactive”.

With `COCC(=O)Nc1ccc2c(c1)C(=O)N(C)C[C@@H](OC)[C@H](C)CN(Cc1ccccc1OC)[C@@H](C)CO2`, the cytotoxicity call with HSkMC and in the experiment on HepG2 was “inactive” each time. The growth inhibition call with S. aureus RN4220 is “inactive”.

On to `Cc1ccccc1-c1cc(N2CCN(C)CC2)ncc1N(C)C(=O)C(C)(C)c1cc(C(F)(F)F)cc(C(F)(F)F)c1`, for which the cytotoxicity call in the experiment on HSkMC and in the experiment with HepG2 was “inactive” each time. The growth inhibition call with S. aureus RN4220 is “active”.

On to `O=C(C[C@@H]1CC[C@@H]2[C@H](COC[C@H](O)CN2S(=O)(=O)c2ccccc2Cl)O1)NCc1ccccc1Cl`, for which the cytotoxicity call in the experiment on HSkMC and in the experiment on HepG2 was “inactive” in each case. Also, the growth inhibition call in the experiment on S. aureus RN4220 was “inactive”.

Turning to `C[C@H](CO)N1C[C@H](C)[C@H](CN(C)S(=O)(=O)c2cccs2)Oc2c(NS(=O)(=O)c3cccs3)cccc2C1=O`, the cytotoxicity call in the experiment with HSkMC and in the experiment with HepG2 was “inactive” each time. The growth inhibition call with S. aureus RN4220 is “inactive”.

`O=C(NCCO)c1ccc(C(=O)NCCO)cc1`: the cytotoxicity call with HSkMC and in the experiment with HepG2 was “inactive” throughout. Besides, the growth inhibition call in the experiment on S. aureus RN4220 is “inactive”.

For the molecule `O=C(Oc1ccc(Cl)cc1)c1sc2ccccc2c1Cl`, the cytotoxicity call with HSkMC and in the experiment with HepG2 was “inactive” throughout. The growth inhibition call in the experiment on S. aureus RN4220 is “inactive”.

`Cc1ncc([N+](=O)[O-])n1CC(O)CCl` (stereo not given): the cytotoxicity call in the experiment on HSkMC and in the experiment with HepG2 was “inactive” each time. For the same molecule, in the experiment with S. aureus RN4220, the growth inhibition call was “inactive”.

Consider `CCSc1nc(=O)c(C)n[nH]1`, for which the cytotoxicity call in the experiment on HSkMC and with HepG2 was “inactive” throughout. Further, in the experiment with S. aureus RN4220, the growth inhibition call was “inactive”.

For `COc1ccc(S(=O)(=O)N(C)C[C@H]2Oc3ccc(NC(=O)CCN4CCOCC4)cc3CC(=O)N([C@@H](C)CO)C[C@H]2C)cc1`, the cytotoxicity call with HSkMC and in the experiment with HepG2 was “inactive” in each case. Further, in the experiment with S. aureus RN4220, the growth inhibition call was “inactive”.

As to `COCCCNC(=O)[C@@]1(Cc2ccccc2I)c2ccccc2C(=O)N(C2CCCCC2)[C@H]1c1ccc(CO)cc1`, the cytotoxicity call in the experiment on HSkMC is “inactive”. The cytotoxicity call in the experiment on HepG2 is “active”. In addition, in the experiment on S. aureus RN4220, the growth inhibition call is “inactive”.

With `O=C(Nc1ccc(-c2nc3ccc(NC(=O)c4ccc(Cl)cc4)cc3[nH]2)cc1)c1ccc(Cl)cc1`, the cytotoxicity call in the experiment on HSkMC and in the experiment on HepG2 was “active” each time. Further, the growth inhibition call in the experiment on S. aureus RN4220 is “inactive”.

As to `COc1ccc(S(=O)(=O)Nc2ccc3c(c2)CC(=O)N([C@@H](C)CO)C[C@H](C)[C@H](CN(C)S(=O)(=O)c2ccc(C)cc2)O3)cc1`, the cytotoxicity call in the experiment on HSkMC and in the experiment with HepG2 was “inactive” throughout. Besides, in the experiment with S. aureus RN4220, the growth inhibition call was “inactive”.

On to `C[C@@H]1CN(C)C(=O)c2cc(NC(=O)Nc3ccccc3)ccc2O[C@@H](C)CCCCO[C@@H]1CN(C)S(=O)(=O)c1ccc(F)cc1`, for which the cytotoxicity call in the experiment on HSkMC (human skeletal muscle cells) and in the experiment on HepG2 was “inactive” throughout. In the experiment with S. aureus RN4220, the growth inhibition call is “inactive”.

On to `Cn1c(NCCN(CCO)CCCc2ccc([N+](=O)[O-])cc2)cc(=O)n(C)c1=O`, for which the cytotoxicity call with HSkMC and with HepG2 was “inactive” each time. Besides, the growth inhibition call with S. aureus RN4220 is “inactive”.

Source of the values: the antibiotic and cytotoxicity screens of Wong et al. (2023).
